This sample is rich in variants without activity.
B1: TPR 5TU (parent)
chain: GGAUCUUCUCGAUCUAACAAAAAAGACAAAUCUGCCACAAAGCUUGAGAGCAUCUUCGGAUGCAGAGGCGGCAGCCUUCGGUGGCGCGAUAGCGCCAACGUUCUCAACUAUGACACGCAAAACGCGUGCUCCGUUGAAUGGAGUUUAUCAUG

Variants of: B1
Test: polymerase ribozyme fitness, log enrichment relative to wild type (log ratio); higher = more active; in vitro selection for triplet polymerase activity
Summary of the method: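 Fitness compares each genotype's enrichment to that of the wild type on a logarithmic scale, averaging replicates with inverse-variance weights. The logarithm is base 2. Enrichment came from Illumina sequencing of input and output libraries after one triplicate round of in vitro selection, which included frozen incubation at −7 °C, of PCR-built, transcribed mutant libraries of each subunit of a heterodimeric triplet polymerase ribozyme. Only genotypes with ≥10 input reads and ≥1 read per output were kept.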
For GGAUCUUCUCGAUCUAACAAAAAAGACAAAUCUACCACAAAGCUUAAGCGCAUCUUCGGAUGCAGACGCGGCAGCAUUCGGUGGCGCGAUAGCGCCAACGUUCUCAACUAUGACACGCAAAACGCGUGCUCCGUUGAAUGGAGUUUAUCAUG [G34A G46A A49C G67C C76A], the “polymerase ribozyme fitness (log ratio)” value was ≤ -4.2. For GGAUCUUCUCGAUCUAACAAAAAAGACAAAUCUACCACAAAGCUUAAGAGCAUCUUCGGAUGCAGAGGCGGCAGCGUUCGGUGGCGCGAUAGCGCCAACGUUCUCAACUAUGACACGCAAAACGCGUGCUCCGUUAAAUGGAGAUUAUCAUG [G34A G46A C76G G136A U144A], the “polymerase ribozyme fitness (log ratio)” value was ≤ -4.2. For GGAUCUUCUCGAUCUAACAAAAAAGACAAAUCUACCACAAAGCUUGAGACCAUCUUCGGAUGCAGAGGCGGCAGCCUUCGGUGGCGCGAUAGCGCCAACGUUCUCAACUGUGACACGCAAAACGCGUGCUCCGUGGAAUGGAGUUUAGCAUG [G34A G50C A110G U135G U148G], the “polymerase ribozyme fitness (log ratio)” value was ≤ -4.2. In the case of GGAUCUUCUCGAUCUAACAAAAAAGACAAAUCUACCACAAAGCUUGAGAGCAUCUUCGGAUGCAGAUGCGGCAGCGUUCGGUGGCGCGAUGGCGCCAACGUUCUCAACUAUGACAGGCAAAACGCGUGCUCCGUUGAAUGGAGUUUAUCAUG [G34A G67U C76G A91G C116G], the “polymerase ribozyme fitness (log ratio)” value is reported as ≤ -4.2. In the case of GGAUCUUCUCGAUCUAACAAAAAAGACAAAUCUACCACAAAGCUUGAGAGCAUCUUCGGAUGCAGAGGCGGCAGCCUUCGGUGGCGCGAUAACGCCAACGUUCUCAACUAUGACACGCAAAACGCGUGCUCCGUUGAAUGGAGUUUAUAAUG [G34A G92A C149A], the “polymerase ribozyme fitness (log ratio)” value is reported as ≤ -4.2. With GGAUCUUCUCGAUCUAACAAAAAAGACAAAUCUACCACAAAGCUUGAGAGCAUCAUCGGAUGCAAAGGCGGCAGCUUUCGGUGGUGCGAUAGCGCCAACGUUCUCAACUAUGACACACAAAACGUAUGCUCCGAUGAAUGGAGUUUAUCAUG [G34A U55A G65A C76U C85U G117A C125U G126A U134A] the “polymerase ribozyme fitness (log ratio)” value was ≤ -4.2. For GGAUCUUCUCGAUCUAACAAAAAAGACAAAUCUACCACAAAGCUUGAGAGCAUCAUCGGAUGCAGAGGCUGCAGCCUUCUGUGGCACGAUAGCGCCAACGUUCUCAACUAUGACACGCAAAACGCGUGCUCCGUUGAAUGGAGUUUAUCAUG [G34A U55A G70U G80U G86A], the “polymerase ribozyme fitness (log ratio)” value was ≤ -4.2. For GGAUCUUCUCGAUCUAACAAAAAAGACAAAUCUACCACAAAGCUUGAGAGCAUCAUCGGAUGCAGAGGCGGCAUCCUUCGGUGGCGCGAUAGCGCCAACGUUCUCAACUAUGACACGCAAAACGCGUGCUCCGUUGAAUGGAGUUUAUCAUG [G34A U55A G74U], the “polymerase ribozyme fitness (log ratio)” value was ≤ -4.2. With GGAUCUUCUCGAUCUAACAAAAAAGACAAAUCUACCACAAAGCUUGAGAGCAUCGUCGGAUGCAGAGGCGGCAGCCUUCGGUGACGCGAUAGCGCCAACGUUCUCAACUAUGACACGCAAAACGCGUGCUCCGUUGAGUGGAGUUGAUCAUG [G34A U55G G84A A138G U146G] the “polymerase ribozyme fitness (log ratio)” value was ≤ -4.2. With GGAUCUUCUCGAUCUAACAAAAAAGACAAAUCUACCACAAAGCUUGAGAGCAUCUACGGAUGCAGAGGCGGCAGCCUUCGGUGACGCGAUAGCCCCAACGUUCUCCACUAUGACACGCAAAACGCGUGCUCCGUUGAAUGAAGUUUAUCAUG [G34A U56A G84A G94C A106C G141A] the “polymerase ribozyme fitness (log ratio)” value was ≤ -4.2. In the case of GGAUCUUCUCGAUCUAACAAAAAAGACAAAUCUACCACAAAGCUUGAGAGCAUCUUCGGAAGCAGAGGCGGAAGCCUUCGGUGGCGCGAUAGCGCCAACGUUCUCAACUAUGACACGCAAAACGCGUGCUCCGUUGAAUGGACUUUAUCAUG [G34A U61A C72A G143C], the “polymerase ribozyme fitness (log ratio)” value is reported as ≤ -4.2. For GGAUCUUCUCGAUCUAACAAAAAAGACAAAUCUACCACAAAGCUUGAGAGCAUCUUCGGAUGCAGAGGCGGCAGCCUUCGGUGGCGCGAUAGCGCCAACGAUCUCAACUAUGACACGCAAAACGCGUGCUCCGUUGAAUGGAGUUUAUCAUG [G34A U101A], the “polymerase ribozyme fitness (log ratio)” value was -2.82. For GGAUCUUCUCGAUCUAACAAAAAAGACAAAUCUCCCACAAAGCUUGCGAGCAUCUACGGAUGCAGAGGCGGCAGCCUUCGGUGGCGCGAUAGCGCCAACGUUCUCAACUAUGACACGCAAAACGCGUGCUCCGUUGAAUGGAGUUUAUCAUG [G34C A47C U56A], the “polymerase ribozyme fitness (log ratio)” value was ≤ -4.2. In the case of GGAUCUUCUCGAUCUAACAAAAAAGACAAAUCUCCCACAAAGCUUGAGAGCGUCUUCGGAUGCAGAGGCGGCAGCCUUCGGUGACGCGAUAGCGCCAACGUUCUCAACAAUGACACGCAAAACGUGUGCUCCGUUGAAUGGAGUUUAUCAUG [G34C A52G G84A U109A C125U], the “polymerase ribozyme fitness (log ratio)” value is reported as ≤ -4.2. In the case of GGAUCUUCUCGAUCUAACAAAAAAGACAAAUCUCCCACAAAGCUUGAGAGCGUCUUCGGAUGCAGAGGCGGCAGCCUCCGGCGGCCCGAUAGCGCCAACGUUCUCGACUAUGACACGCAAAACGCGUGCUCCGUUGAAUGGACUUUAUCAUG [G34C A52G U78C U82C G86C A106G G143C], the “polymerase ribozyme fitness (log ratio)” value is reported as ≤ -4.2. With GGAUCUUCUCGAUCUAACAAAAAAGACAAAUCUCCCACAAAGCUUGAGAGCAUCUUCGGAUGCAGAGGCGGCAGCCUUCGGUGGCGCGCUAGUGCCAACGUUCUCAACUAUGACACGCAAAACGCGUGCUCCGUCGAAUGGAGUUAAUCAUG [G34C A89C C93U U135C U146A] the “polymerase ribozyme fitness (log ratio)” value was ≤ -4.2. With GGAUCUUCUCGAUCUAACAAAAAAGACAAAUCUCUCACAAAGCUUGAGAGCAUCUUCGAAUGCAGAGGCGGCAGCCUUCGGUGGCGAUAUAGCGCCAACGUUCUAAACUAUGACACGCAAAACGCGUGCUCCGUUGAAUGGAGUUUAUCAUG [G34C C35U G59A C87A G88U C105A] the “polymerase ribozyme fitness (log ratio)” value was ≤ -4.2. In the case of GGAUCUUCUCGAUCUAACAAAAAAGACAAAUCUCCCAUAAAGCUUGAGAGCAUCUUCGAAUGCAGAGGCGGCAGCCUUCGGCGGCGCGAUAGCGCCAACGUUAUCAACUAUGACACGCAAAACGGGUGCUCCGUUGAAUGGAGUUUAUCAUG [G34C C38U G59A U82C C103A C125G], the “polymerase ribozyme fitness (log ratio)” value is reported as ≤ -4.2. With GGAUCUUCUCGAUCUAACAAAAAAGACAAAUCUCCCACAAAGAUUGAGAGCAUCUUCGGAUGCAGAGGCGGCAGCCUUCGGUGUCGCGAUAGGGCCAACGUUCUCAACUAUGACACGCAAAACGCUUGCUCCGUUGAAUGGAGCUUAUCAUG [G34C C43A G84U C93G G126U U144C] the “polymerase ribozyme fitness (log ratio)” value was ≤ -4.2.

From the RNAGym collection of RNA variant scans (doi:10.1073/pnas.2313332121)
